According to article PMC4150796:
These are yes or no findings as the source states them, for the method shown. Binding seen in cells or lysates may run through a third protein. Some results given as binding are weak or reduced against the parent protein; the word gives no strength.

T1: EBNA3A, full-length, expressed in HEK293T cells (Epstein–Barr virus) (UniProt P12977)
T1 sequence: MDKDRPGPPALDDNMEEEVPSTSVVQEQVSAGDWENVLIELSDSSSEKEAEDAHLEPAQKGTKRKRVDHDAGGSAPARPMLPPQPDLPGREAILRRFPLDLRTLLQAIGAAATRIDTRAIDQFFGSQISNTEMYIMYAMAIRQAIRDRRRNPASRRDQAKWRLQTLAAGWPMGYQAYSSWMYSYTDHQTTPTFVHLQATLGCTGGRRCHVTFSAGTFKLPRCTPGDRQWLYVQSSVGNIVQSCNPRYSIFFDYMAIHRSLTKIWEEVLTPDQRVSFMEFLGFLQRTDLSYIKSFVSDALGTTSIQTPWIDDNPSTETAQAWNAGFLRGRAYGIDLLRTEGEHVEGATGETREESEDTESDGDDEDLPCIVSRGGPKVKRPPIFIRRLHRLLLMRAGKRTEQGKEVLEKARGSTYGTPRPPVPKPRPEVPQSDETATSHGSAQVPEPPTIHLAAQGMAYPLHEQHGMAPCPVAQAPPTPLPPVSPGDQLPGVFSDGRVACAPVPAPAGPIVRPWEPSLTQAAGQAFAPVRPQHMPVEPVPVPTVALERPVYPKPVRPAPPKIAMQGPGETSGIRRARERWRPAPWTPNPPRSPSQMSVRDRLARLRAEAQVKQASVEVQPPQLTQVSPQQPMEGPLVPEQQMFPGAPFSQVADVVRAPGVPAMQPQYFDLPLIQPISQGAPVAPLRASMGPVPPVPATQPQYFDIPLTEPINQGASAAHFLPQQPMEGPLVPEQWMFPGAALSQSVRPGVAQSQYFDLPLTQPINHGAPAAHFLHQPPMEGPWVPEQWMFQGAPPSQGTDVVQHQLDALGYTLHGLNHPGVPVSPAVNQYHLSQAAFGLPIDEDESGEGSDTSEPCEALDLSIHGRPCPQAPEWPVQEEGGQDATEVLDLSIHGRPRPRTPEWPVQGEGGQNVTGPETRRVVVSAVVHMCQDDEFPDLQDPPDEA

B1: Coiled-coil domain containing 80, full-length, expressed in HEK293T cells (protein, UniProt Q76M96 22-950)
chain: EPHPHATIRGSHGGRKVPLVSPDSSRPARFLRHTGRSRGIERSTLEEPNLQPLQRRRSVPVLRLARPTEPPARSDINGAAVRPEQRPAARGSPREMIRDEGSSARSRMLRFPSGSSSPNILASFAGKNRVWVISAPHASEGYYRLMMSLLKDDVYCELAERHIQQIVLFHQAGEEGGKVRRITSEGQILEQPLDPSLIPKLMSFLKLEKGKFGMVLLKKTLQVEERYPYPVRLEAMYEVIDQGPIRRIEKIRQKGFVQKCKASGVEGQVVAEGNDGGGGAGRPSLGSEKKKEDPRRAQVPPTRESRVKVLRKLAATAPALPQPPSTPRATTLPPAPATTVTRSTSRAVTVAARPMTTTAFPTTQRPWTPSPSHRPPTTTEVITARRPSVSENLYPPSRKDQHRERPQTTRRPSKATSLESFTNAPPTTISEPSTRAAGPGRFRDNRMDRREHGHRDPNVVPGPPKPAKEKPPKKKAQDKILSNEYEEKYDLSRPTASQLEDELQVGNVPLKKAKESKKHEKLEKPEKEKKKKMKNENADKLLKSEKQMKKSEKKSKQEKEKSKKKKGGKTEQDGYQKPTNKHFTQSPKKSVADLLGSFEGKRRLLLITAPKAENNMYVQQRDEYLESFCKMATRKISVITIFGPVNNSTMKIDHFQLDNEKPMRVVDDEDLVDQRLISELRKEYGMTYNDFFMVLTDVDLRVKQYYEVPITMKSVFDLIDTFQSRIKDMEKQKKEGIVCKEDKKQSLENFLSRFRWRRRLLVISAPNDEDWAYSQQLSALSGQACNFGLRHITILKLLGVGEEVGGVLELFPINGSSVVEREDVPAHLVKDIRNYFQVSPEYFSMLLVGKDGNVKSWYPSPMWSMVIVYDLIDSMQLRRQEMAIQQSLGMRCPEDEYAGYGYHSYHQGYQDGYQDDYRHHESYHHGYPY
B2: Zinc finger and BTB domain containing 17 (MIZ-1), full-length, expressed in HEK293T cells (protein, UniProt Q13105 1-803)
chain: MDFPQHSQHVLEQLNQQRQLGLLCDCTFVVDGVHFKAHKAVLAACSEYFKMLFVDQKDVVHLDISNAAGLGQVLEFMYTAKLSLSPENVDDVLAVATFLQMQDIITACHALKSLAEPATSPGGNAEALATEGGDKRAKEEKVATSTLSRLEQAGRSTPIGPSRDLKEERGGQAQSAASGAEQTEKADAPREPPPVELKPDPTSGMAAAEAEAALSESSEQEMEVEPARKGEEEQKEQEEQEEEGAGPAEVKEEGSQLENGEAPEENENEESAGTDSGQELGSEARGLRSGTYGDRTESKAYGSVIHKCEDCGKEFTHTGNFKRHIRIHTGEKPFSCRECSKAFSDPAACKAHEKTHSPLKPYGCEECGKSYRLISLLNLHKKRHSGEARYRCEDCGKLFTTSGNLKRHQLVHSGEKPYQCDYCGRSFSDPTSKMRHLETHDTDKEHKCPHCDKKFNQVGNLKAHLKIHIADGPLKCRECGKQFTTSGNLKRHLRIHSGEKPYVCIHCQRQFADPGALQRHVRIHTGEKPCQCVMCGKAFTQASSLIAHVRQHTGEKPYVCERCGKRFVQSSQLANHIRHHDNIRPHKCSVCSKAFVNVGDLSKHIIIHTGEKPYLCDKCGRGFNRVDNLRSHVKTVHQGKAGIKILEPEEGSEVSVVTVDDMVTLATEALAATAVTQLTVVPVGAAVTADETEVLKAEISKAVKQVQEEDPNTHILYACDSCGDKFLDANSLAQHVRIHTAQALVMFQTDADFYQQYGPGGTWPAGQVLQAGELVFRPRDGAEGQPALAETSPTAPECPPPAE
B3: Nuclear transcription factor Y, gamma, full-length, expressed in HEK293T cells (protein, UniProt Q13952 1-458)
chain: MSTEGGFGGTSSSDAQQSLQSFWPRVMEEIRNLTVKDFRVQELPLARIKKIMKLDEDVKMISAEAPVLFAKAAQIFITELTLRAWIHTEDNKRRTLQRNDIAMAITKFDQFDFLIDIVPRDELKPPKRQEEVRQSVTPAEPVQYYFTLAQQPTAVQVQGQQQGQQTTSSTTTIQPGQIIIAQPQQGQTTPVTMQVGEGQQVQIVQAQPQGQAQQAQSGTGQTMQVMQQIITNTGEIQQIPVQLNAGQLQYIRLAQPVSGTQVVQGQIQTLATNAQQGQRNASQGKPRRCLKETLQITQTEVQQGQQQFSQFTDGQRNSVQQARVSELTGEAEPREVKATGNSTPCTSSLPTTHPPSHRAGASCVCCSQPQQSSTSPPPSDALQWVVVEVSGTPNQLETHRELHAPLPGMTSLSPLHPSQQLYQIQQVTMPAGQDLAQPMFIQSANQPSDGQAPQVTGD
B4: Zyxin, full-length, expressed in HEK293T cells (protein, UniProt Q15942 1-572)
chain: MAAPRPSPAISVSVSAPAFYAPQKKFGPVVAPKPKVNPFRPGDSEPPPAPGAQRAQMGRVGEIPPPPPEDFPLPPPPLAGDGDDAEGALGGAFPPPPPPIEESFPPAPLEEEIFPSPPPPPEEEGGPEAPIPPPPQPREKVSSIDLEIDSLSSLLDDMTKNDPFKARVSSGYVPPPVATPFSSKSSTKPAAGGTAPLPPWKSPSSSQPLPQVPAPAQSQTQFHVQPQPQPKPQVQLHVQSQTQPVSLANTQPRGPPASSPAPAPKFSPVTPKFTPVASKFSPGAPGGSGSQPNQKLGHPEALSAGTGSPQPPSFTYAQQREKPRVQEKQHPVPPPAQNQNQVRSPGAPGPLTLKEVEELEQLTQQLMQDMEHPQRQNVAVNELCGRCHQPLARAQPAVRALGQLFHIACFTCHQCAQQLQGQQFYSLEGAPYCEGCYTDTLEKCNTCGEPITDRMLRATGKAYHPHCFTCVVCARPLEGTSFIVDQANRPHCVPDYHKQYAPRCSVCSEPIMPEPGRDETVRVVALDKNFHMKCYKCEDCGKPLSIEADDNGCFPLDGHVLCRKCHTARAQT

Tests used:
Test in all cases: co-IP; HEK293T cells transfected with expression plasmids for full-length proteins; IP buffer 50 mM Tris-HCl pH 7.5, 150–300 mM NaCl, 1 mM DTT, 0.5% Nonidet P-40; which partner was precipitated is not told
[1] = molecular target: T1, EBNA3A, full-length, expressed in HEK293T cells (Epstein–Barr virus)
[2] = molecular target: EBNA3C, full-length, expressed in HEK293T cells (Epstein–Barr virus) (UniProt P03204)
[3] = molecular target: EBNA3B, full-length, expressed in HEK293T cells (Epstein–Barr virus) (UniProt P03203)

Molecule	binding [1]	binding [2]	binding [3]
F-box protein, helicase, 18, full-length, expressed in HEK293T cells (from UniProt Q8NFZ0 1-1043)	binds	binds	
Stress induced phosphoprotein 1, full-length, expressed in HEK293T cells (from UniProt P31948 1-543)	binds	binds	binds
COP9 constitutive photomorphogenic homolog, subunit 5, full-length, expressed in HEK293T cells (from UniProt Q92905 1-334)	binds	binds	binds
C-terminal binding protein 2, full-length, expressed in HEK293T cells (from UniProt P56545 1-445)	binds	binds	binds
Eukaryotic translation initiation factor 3 subunit F, full-length, expressed in HEK293T cells (from UniProt O00303 1-357)	binds	binds	binds
Proteasome subunit, alpha, type 7, full-length, expressed in HEK293T cells (from UniProt O14818 1-248)	binds		binds
Trafficking protein particle complex 6A, full-length, expressed in HEK293T cells (from UniProt O75865 1-159)	binds	binds	binds
Mesenchyme homeobox 1, full-length, expressed in HEK293T cells (from UniProt P50221 1-254)	binds	binds	binds
Heterogeneous nuclear ribonucleoprotein K, full-length, expressed in HEK293T cells (from UniProt P61978 1-463)		binds	
Microspherule protein 1, full-length, expressed in HEK293T cells (from UniProt Q96EZ8 1-462)	binds	binds	binds
SMT3 suppressor of mif two 3 homolog 2, full-length, expressed in HEK293T cells (from UniProt P61956 1-95)	binds	binds	binds
DnaJ (Hsp40) homolog, subfamily B, member 1, full-length, expressed in HEK293T cells (from UniProt P25685 1-340)	binds	binds	binds
PDZ and LIM domain 7, full-length, expressed in HEK293T cells (from UniProt Q9NR12 1-457)	binds	binds	binds
Arrestin, beta 2, full-length, expressed in HEK293T cells (from UniProt P32121 1-409)	binds	binds	binds
B1	binds	binds	binds
B2	binds	binds	binds
B3	binds		binds
B4	binds		binds
